Laboratory results as given in PubChem BioAssay AID463173 (ICCB-Longwood Screening Facility, Harvard Medical School, 2010).
Screen size: about 52,000 compounds; about 1,700 (3.3%) were called active. No stated cut-off is given here; in the data, active means survival mostly below about 52% (no sharp cut-off); inactive means mostly above about 56%. This is one part of the list.

system: Wild type; assay: growth inhibition of S. aureus wild type versus tarO mutant, primary screen, teichoic acid synthesis inhibitors, RN4220, OD600 (AID 463173); details: S. aureus RN4220 wild type/DeltatarO growth, OD600, 18 h, hits give low values, screened at 18.75 µg/mL (by protocol)

Row | SMILES | survival
1 | O=C(NCC1CCN(Cc2cccc(Cl)c2)CC1)Nc1cc(Cl)ccc1Cl | active: -1%
2 | COc1cccc(NC(=O)CN2C(=O)c3cccnc3Oc3ccc(Cl)cc32)c1 | inactive: 74%
3 | COc1ccc(N(C)C(=O)CCn2cnc3onc(-c4ccc(F)cc4)c3c2=O)c(OC)c1 | inactive: 76%
4 | Cc1ccccc1NC(=O)NC1(C(=O)N2CCC(C(N)=O)CC2)CCCCC1 | inactive: 103%
5 | CCCCN(CCCC)C(=O)c1cc2c(=O)n3cccc(C)c3nc2s1 | active: -2%
6 | COc1ccc(C2CC(=O)N(CC(=O)Nc3cc(C)ccc3C)c3ccccc3S2)cc1 (stereo unspecified) | inactive: 86%
7 | CC(C)(C)OC(=O)N1CCC(c2c(C(=O)N3CCC(c4ccccc4)C3)cnn2-c2cccc(Cl)c2)CC1 (stereo unspecified) | inactive: 135%
8 | CCCCCS(=O)(=O)c1oc(-c2cccs2)nc1S(=O)(=O)c1ccc(C)cc1 | active: 11%
9 | NC(=O)c1ccc(S(N)(=O)=O)o1 | inactive: 102%
10 | Cc1cccc(OCC(=O)N(Cc2cccs2)c2ccc(Cl)cc2)c1C | inactive: 79%
11 | COc1ccc(NC(=O)COc2ccc(-c3nn(C)c(=O)c4ccccc34)cc2)cc1 | inactive: 83%
12 | COc1ccccc1CNC(=O)C(NS(=O)(=O)c1cccs1)C(C)C (stereo unspecified) | inactive: 83%
13 | Cc1ccc(-c2nc3sc(CCNC(=O)c4ccc(Br)o4)c(C)n3n2)cc1 | inactive: 82%
14 | COc1ccc(-c2cc3ccc(O)c(CN4CCOCC4)c3oc2=O)cc1OC | inactive: 136%
15 | CCCCOc1ccc(C(=O)Nc2cccc(-c3nc4cccnc4s3)c2)cc1 | inactive: 87%
16 | Cc1cc2n(n1)C(c1cc(C(C)(C)C)c(O)cc1O)Nc1ccccc1-2 (stereo unspecified) | inactive: 115%
17 | CSc1cccc(NC(=O)CN2C(=O)COc3ccc(Cl)cc32)c1 | inactive: 64%
18 | CCOc1ccc(C(=O)N2CCC(c3nc4ccccc4o3)CC2)cc1 | inactive: 80%
19 | CCOc1ccc(OCC)c(NC(=O)c2nnn(CC(=O)Nc3ccc(C)cc3C)c2N)c1 | inactive: 89%
20 | CCOC(=O)C1CCN(c2ncnc3c2oc2ccccc23)CC1 | inactive: 115%
21 | CCOc1ccc(NC(=O)CSc2nc3c(oc4ccccc43)c(=O)n2-c2ccccc2C)cc1 | inactive: 99%
22 | CC(C)N=C1SC(CC(=O)Nc2ccccc2)C(=O)N1C(C)C (stereo unspecified) | inactive: 106%
23 | CC(NC(=O)c1ccc2c(c1)CCN2S(=O)(=O)c1ccc(Cl)cc1)c1ccccc1 (stereo unspecified) | inactive: 102%

Row | SMILES | survival
24 | COc1ccccc1-c1nnc(SCC(=O)c2ccc(Cl)cc2)n1-c1ccccc1 | active: 0%
25 | CCCCc1ccc(NC(=O)c2cc3c(=O)n4ccccc4nc3s2)cc1 | inactive: 83%
26 | Cc1ccc(NC(=O)NCCc2c(C)nn(C)c2C)cc1Cl | inactive: 129%
27 | CCn1ccc2cc(S(=O)(=O)N3CCCN(C(=O)Nc4cccc(Cl)c4)CC3)ccc21 | inactive: 84%
28 | COc1ccc(N(C)C(=O)c2cn(C3CCCCC3)c(=O)c3c2c2ccccc2n3C)cc1 | inactive: 51%
29 | COc1ccc(C2=NN(CC(=O)NCCc3ccc(OC)c(OC)c3)C(=O)CC2)cc1 | inactive: 143%
30 | Cc1cc(NC(=O)c2cccnc2)ccc1NC(=O)c1ccco1 | inactive: 92%
31 | CCOC(=O)c1c(S(=O)(=O)N2CCCC(C(=O)Nc3cccc(Cl)c3)C2)c(C)n(C)c1C (stereo unspecified) | inactive: 90%
32 | CC1(C)CC(NS(=O)(=O)c2ccc(S(=O)(=O)N3CCOCC3)cc2)CCO1 (stereo unspecified) | inactive: 101%
33 | CCCCN(CC)CCCNC(=O)CCN1N=C(c2ccc(OC)cc2)CCC1=O | inactive: 70%
34 | COc1ccccc1NC(=O)C(=O)NCCc1csc(-c2cccc(F)c2)n1 | inactive: 124%
35 | COc1ccc(NC(=O)c2cc(C3CC3)nc3c2c(C)nn3-c2ccccc2)cc1 | inactive: 79%
36 | COc1cccc(CNC(=O)c2cc3c(s2)-c2ccccc2OC3)c1 | inactive: 65%
37 | COc1ccc(-n2c(=O)c3c4c(sc3n(Cc3ccc(F)cc3)c2=O)CCCC4)c(OC)c1 | inactive: 64%
38 | COc1ccccc1NC(=O)C1=C(C)Nc2ncnn2C1c1ccccc1C(=O)O (stereo unspecified) | inactive: 77%
39 | Cc1cc(N2CCCCC2)nc2ccc(NC(=O)c3cccc(Cl)c3)cc12 | active: -2%
40 | CCOc1ccc(CNS(=O)(=O)c2cc3c(cc2C)NC(=O)CO3)cc1OC | inactive: 82%
41 | COc1ccc(S(=O)(=O)N2CCC(O)(c3cccnc3)CC2)cc1OC | inactive: 114%
42 | CCOc1ccccc1C(=O)Nc1ccc2nc(N(CC)CC)cc(C)c2c1 | inactive: 63%
43 | Cc1ccc(OCC(=O)Nc2nnc(SCc3cc(=O)c4ccccc4[nH]3)s2)cc1 | inactive: 78%
44 | CC(C)N(C(=O)CN1CCN(Cc2ccccc2)CC1)C(C)C | inactive: 107%
45 | CCN(CC)C(=O)Cn1cc(SCC(=O)Nc2ccccc2C)c2ccccc21 | inactive: 83%
46 | CCOC(=O)N1CCc2c(sc(NCc3cc(OC)c(OC)cc3OC)c2C(=O)Nc2ccc(OCC)cc2)C1 | inactive: 68%

Row | SMILES | survival
47 | CCc1ccc(-n2c(=O)c3cccnc3n2CC(=O)Nc2cc(F)ccc2F)cc1 | inactive: 73%
48 | CCN1CCN(c2ncc3c(n2)CCN(Cc2ccc(OC(C)C)cc2)C3)CC1 | inactive: 55%
49 | O=C(NC1CCCCC1)NC1CCN(Cc2nnnn2Cc2ccc3c(c2)OCO3)CC1 | inactive: 106%
50 | CCOC(=O)c1ccc(-c2ccc(/C=C(\C#N)C(=O)Nc3ccc(OCC)cc3)o2)cc1 | inactive: 73%
51 | Cc1cccc(-c2nc(SCCCOc3ccc(Cl)c(C)c3)n3[nH]c(=O)cc3n2)c1 | inactive: 68%
52 | CCOC(=O)c1cccc(NC(=O)NCc2ccc3c(c2)CCN3C(=O)c2ccccc2)c1 | inactive: 136%
53 | CCc1ccccc1NC(=O)C(=O)NCC(c1cccnc1)N1CCN(c2ccccc2F)CC1 (stereo unspecified) | inactive: 92%
54 | COc1ccc(Cl)cc1-n1nnc(-c2nsc(NC(=O)c3ccccc3Cl)n2)c1C | inactive: 44%
55 | Cc1ccc(NC(=O)C2CCC(CNS(=O)(=O)c3csc(C(N)=O)c3)CC2)cc1Cl (stereo unspecified) | inactive: 68%
56 | CCCSc1nc2sc3c(c2c(=O)n1Cc1ccccc1)CC(C)(CC)OC3 (stereo unspecified) | inactive: 20%
57 | COC(=O)c1nnn(-c2cccc(C)c2)c1C(=O)OC | inactive: 77%
58 | COc1ccc(C2(CNC(=O)C(=O)Nc3ccc(F)cc3)CCCC2)cc1OC | inactive: 84%
59 | O=C(N/N=C1/SCC(=O)N1Cc1ccco1)c1ccccc1F | inactive: 97%
60 | Cc1ccc(NS(=O)(=O)c2ccc3c(c2)CCCN3C(=O)C2CCC2)c(C)c1 | inactive: 58%
61 | N#Cc1cc(O)c(-n2nnc3ccccc32)cc1C#N | inactive: 107%
62 | CCOC(=O)c1c(S(=O)(=O)NCC(=O)Nc2cc(C)ccc2C)c(C)n(C)c1C | inactive: 66%
63 | CCc1nn(Cc2cc(C)ccc2C)c(=O)c2cc3cc(C)ccc3n12 | inactive: 81%
64 | CC(C)(C)C(=O)Cn1c(C(=O)O)cc2ccccc21 | inactive: 106%
65 | CCc1nn2c(=O)cc(COC(=O)c3ccco3)nc2s1 | inactive: 124%
66 | COc1ccc(N2CC(NC(=O)c3ccc(Br)o3)CC2=O)cc1 (stereo unspecified) | inactive: 88%
67 | CCCC(=O)Nc1ccc2c(C)cc(C)nc2n1 | inactive: 99%
68 | Cc1ccc(-c2cn3c(n2)sc2cc(C(=O)NC(C)C45CC6CC(CC(C6)C4)C5)ccc23)cc1 (stereo unspecified) | inactive: 86%
69 | CCOC(=O)C1CCN(S(=O)(=O)c2csc(C(N)=O)c2)CC1 | inactive: 88%

Row | SMILES | survival
70 | COc1ccc(N2CCN(C(=O)c3cc4c(s3)-c3ccccc3OC4)CC2)cc1 | inactive: 116%
71 | CCOc1ccccc1CNC(=O)C1CCN(S(=O)(=O)c2ccc3c(ccn3C)c2)CC1 | inactive: 70%
72 | O=C(Cn1ncc2c([nH]c3ccccc32)c1=O)NCC1CCN(Cc2ccc(F)cc2)CC1 | inactive: 90%
73 | Cc1ccccc1C(=O)Nc1nc(-c2nnn(-c3ccc(C(C)C)cc3)c2C)ns1 | inactive: 85%
74 | COc1ccc(CN2CCN(c3ncnc4sc5c(c34)CC(C)CC5)CC2)cc1F (stereo unspecified) | inactive: 66%
75 | C/C=C/C(=O)N1c2ccccc2C(C)=CC1(C)C | inactive: 101%
76 | Cc1cc(Cl)ccc1NC(=O)CN(c1ccccc1Br)S(C)(=O)=O | inactive: 77%
77 | CCOc1ccc(C(=O)NCCS(=O)(=O)N2CCN(c3ccccc3F)CC2)cc1OCC | inactive: 102%
78 | COc1ccccc1N1CCN(CCCNC(=O)c2cnn(-c3ccccc3)c2C2CCN(C(=O)OC(C)(C)C)CC2)CC1 | inactive: 58%
79 | CC(C)NCC(O)COc1ccccc1 (stereo unspecified) | inactive: 112%
80 | Nc1ccnn1C1CCCC1 | inactive: 100%
81 | N#CC1=C(N)SC(N)=C(C#N)C1c1ccc(O)cc1 | inactive: 84%
82 | CCc1ccc(-n2c(Cc3ccccc3)nnc2SCc2nc(-c3cccs3)no2)cc1 | inactive: 99%
83 | Cn1ccnc1SCC(=O)Nc1ccccc1 | inactive: 105%
84 | Cc1ccc(C)n1-c1nnc(N2CCCC(C(=O)NCc3cccc(Cl)c3)C2)s1 (stereo unspecified) | inactive: 67%
85 | CCn1cc(S(=O)(=O)c2cccc(Cl)c2)c(=O)c2cc(F)c(N3CCN(c4ccccc4)CC3)cc21 | inactive: 55%
86 | Cc1nc2ccn(Cc3cccs3)c(=O)c2cc1C(=O)Nc1ccccc1 | inactive: 91%
87 | CC1=C(C(=O)NCc2ccc(Cl)cc2)C2(CCCCC2)OC1=O | inactive: 71%
88 | Cc1ccc(/C=C/c2onc(C)c2S(=O)(=O)N2CCC(C(=O)NCC(C)c3ccccc3)CC2)cc1 (stereo unspecified) | inactive: 73%
89 | O=C(NCCc1ccccc1)c1cc(Sc2cccc(Cl)c2)nc2ccccc12 | inactive: 78%
90 | Cc1nn(CC(=O)Nc2ccc3c(c2)oc2ccccc23)c(=O)c2ccccc12 | inactive: 95%
91 | CCCCCn1c(-c2ccc(OC)c(OC)c2)nc2ccccc21 | active: 1%
